According to a collection of fitness landscapes (doi:10.1038/s41467-024-54723-y):
Over roughly 18,000 sequences, “TetR repression strength (sort-seq, GFP reporter)” has its median near 0.23; the highest 2% begin near 0.68. Some of the results follow.

Target: TetR (class B, Tn10) (UniProt P04483)
Assay: TetR repression strength (sort-seq, GFP reporter) (relative to tetO2 = 1); higher = stronger repression
Settings: E. coli
Method in brief: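 Escherichia coli SIG10-MAX cells carried a low-copy plasmid library in which eight operator positions were randomized between a constitutive promoter and sfGFP, and TetR was expressed constitutively. After 5 h of growth at 37 °C in LB with 50 µg/mL chloramphenicol, 10^6 cells were FACS-sorted into 13 fluorescence bins, and each bin was Illumina-sequenced. Repression strength was the top bin index plus one minus the read-weighted mean bin, divided by the value for the unaltered operator. Across three independent transformations, only library members with ≥30 reads in every replicate and a CV ≤0.5 were averaged.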

Chain of UniProt P04483 (P04483 whole entry): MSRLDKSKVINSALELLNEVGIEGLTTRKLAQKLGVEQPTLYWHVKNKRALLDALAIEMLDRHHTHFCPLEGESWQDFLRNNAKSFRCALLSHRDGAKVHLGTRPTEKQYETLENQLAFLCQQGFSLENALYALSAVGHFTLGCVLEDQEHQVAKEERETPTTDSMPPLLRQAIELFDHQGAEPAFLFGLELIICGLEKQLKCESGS

Row | Sequence | TetR repression strength
1 | TCCCTGGCAGTCCTCGAGA | 0.325
2 | TCCCGCCGAGTTAGAGAGA | 0.395
3 | TCCCGATGAGTCAGGGAGA | 0.174
4 | TCCCGACTAGTACATGAGA | 0.625
5 | TCCCACGCAGTTGCGGAGA | 0.133
6 | TCCCAGCAAGTATCTGAGA | 0.0805
7 | TCCCAATAAGTATAGGAGA | 0.396
8 | TCCCCGGTAGTGGATGAGA | 0.184
9 | TCCCTGTCAGTTGTTGAGA | 0.249
10 | TCCCCGTAAGTGTTTGAGA | 0.207
11 | TCCCCTTTAGTCCCTGAGA | 0.355
12 | TCCCCTGGAGTAGCGGAGA | 0.15
13 | TCCCGTGTAGTGATTGAGA | 0.246
14 | TCCCTGAAAGTAGGGGAGA | 0.17
15 | TCCCGTGCAGTGTCAGAGA | 0.168
16 | TCCCCGGCAGTAGGAGAGA | 0.252
17 | TCCCTCAAAGTATAGGAGA | 0.293
18 | TCCCGTTTAGTGGCCGAGA | 0.0159
19 | TCCCTGGTAGTCGCAGAGA | 0.0716
20 | TCCCCAGAAGTGGCGGAGA | 0.199
21 | TCCCTGGGAGTACTAGAGA | 0.119
22 | TCCCGAACAGTGGTGGAGA | 0.37
23 | TCCCAGTTAGTTTCCGAGA | 0.292
24 | TCCCTGTAAGTGACCGAGA | 0.222
25 | TCCCCTAGAGTTTAGGAGA | 0.127
26 | TCCCATATAGTGTGGGAGA | 0.249

Row | Sequence | TetR repression strength
27 | TCCCATCCAGTCTCAGAGA | 0.356
28 | TCCCATTGAGTGGAGGAGA | 0.28
29 | TCCCCAGTAGTGAACGAGA | 0.359
30 | TCCCGGGCAGTGCGCGAGA | 0.237
31 | TCCCCCCAAGTGGAAGAGA | 0.32
32 | TCCCACTGAGTGGCCGAGA | 0.3
33 | TCCCCGTGAGTTGATGAGA | 0.21
34 | TCCCTGGCAGTTCAGGAGA | 0.203
35 | TCCCTAATAGTAACTGAGA | 0.104
36 | TCCCGTTAAGTAAGAGAGA | 0.271
37 | TCCCGTACAGTTATAGAGA | 0.352
38 | TCCCGACGAGTCCTGGAGA | 0.164
39 | TCCCGTGAAGTTAGGGAGA | 0.0583
40 | TCCCGTCAAGTGCATGAGA | 0.315
41 | TCCCGTGAAGTATTGGAGA | 0.261
42 | TCCCGGCCAGTTTGAGAGA | 0.264
43 | TCCCGTCAAGTACAGGAGA | 0.119
44 | TCCCTAGGAGTTTTCGAGA | 0.181
45 | TCCCTGTTAGTATCTGAGA | 0.484
46 | TCCCAAGTAGTGTCGGAGA | 0.238
47 | TCCCGAGGAGTCGGTGAGA | 0.29
48 | TCCCGTAAAGTTGGTGAGA | 0.264
49 | TCCCACCTAGTAGGGGAGA | 0.236
50 | TCCCAAACAGTCGTGGAGA | 0.311
51 | TCCCAGAGAGTCCGTGAGA | 0.114
52 | TCCCCTCGAGTGATGGAGA | 0.246

Row | Sequence | TetR repression strength
53 | TCCCGCGCAGTGATGGAGA | 0.0786
54 | TCCCGGCGAGTTGAGGAGA | 0.118
55 | TCCCAGGCAGTTAGCGAGA | 0.228
56 | TCCCGGGCAGTCGTCGAGA | 0.311
57 | TCCCGGGTAGTCGCGGAGA | 0.198
58 | TCCCGTGCAGTAAGGGAGA | 0.138
59 | TCCCTAGCAGTGTGGGAGA | 0.233
60 | TCCCAGTCAGTTAGGGAGA | 0.112
61 | TCCCCGAGAGTCGGGGAGA | 0.311
62 | TCCCATTTAGTACTGGAGA | 0.234
63 | TCCCGGATAGTATCAGAGA | 0.893
64 | TCCCATCTAGTACTGGAGA | 0.332
65 | TCCCTCAAAGTCACGGAGA | 0.433
66 | TCCCGATGAGTGTAAGAGA | 0.203
67 | TCCCGGGAAGTTATGGAGA | 0.408
68 | TCCCAGAGAGTTGTCGAGA | 0.619
69 | TCCCGCAGAGTAAAGGAGA | 0.152
70 | TCCCGAGCAGTAACAGAGA | 0.752
71 | TCCCGTGTAGTCACGGAGA | 0.147
72 | TCCCAACGAGTACGTGAGA | 0.272
73 | TCCCGTCAAGTTGGTGAGA | 0.261
74 | TCCCTTGCAGTGGCGGAGA | 0.245
75 | TCCCCGCGAGTCGGGGAGA | 0.0291
76 | TCCCATTCAGTGGTGGAGA | 0.234
77 | TCCCGTAGAGTGGGAGAGA | 0.0307
78 | TCCCGAAGAGTTGGTGAGA | 0.187

Row | Sequence | TetR repression strength
79 | TCCCCAGCAGTCGGGGAGA | 0.104
80 | TCCCAGTCAGTGAGTGAGA | 0.316
81 | TCCCTCACAGTCAGGGAGA | 0.104
82 | TCCCTCGCAGTTAATGAGA | 0.391
83 | TCCCAGGGAGTTTTCGAGA | 0.104
84 | TCCCGTTGAGTACGAGAGA | 0.32
85 | TCCCCCGTAGTGCAGGAGA | 0.201
86 | TCCCACTGAGTGACCGAGA | 0.265
87 | TCCCCGGAAGTCGGAGAGA | 0.0161
88 | TCCCGTGAAGTAAGCGAGA | 0.404
89 | TCCCCAAGAGTATTTGAGA | 0.445
90 | TCCCCGGAAGTGCAGGAGA | 0.314
91 | TCCCTCAGAGTGGGCGAGA | 0.177
92 | TCCCCGCGAGTGTTCGAGA | 0.254
93 | TCCCTACGAGTGGCTGAGA | 0.434
94 | TCCCTACGAGTGGAAGAGA | 0.202
95 | TCCCGGAAAGTGCGCGAGA | 0.112
96 | TCCCCATAAGTGATTGAGA | 0.42
97 | TCCCGAGGAGTTGCGGAGA | 0.171
98 | TCCCAGCTAGTTTTCGAGA | 0.415
99 | TCCCGGGGAGTCGGGGAGA | 0.503
100 | TCCCATCCAGTCTTAGAGA | 0.612
101 | TCCCGGCTAGTAGCAGAGA | 0.0201
102 | TCCCATCGAGTCTCGGAGA | 0.295
103 | TCCCGGACAGTGCATGAGA | 0.4
104 | TCCCTGCGAGTCAGGGAGA | 0.248

Row | Sequence | TetR repression strength
105 | TCCCGGCAAGTGGGCGAGA | 0.298
106 | TCCCTTGTAGTTCAAGAGA | 0.258
107 | TCCCGATGAGTAATGGAGA | 0.0424
108 | TCCCTTTTAGTGTAAGAGA | 0.213
109 | TCCCGCGCAGTATGAGAGA | 0.152
110 | TCCCGTGAAGTCCTGGAGA | 0.218
111 | TCCCTTGCAGTAGGGGAGA | 0.308
112 | TCCCGAGCAGTATGGGAGA | 0.194
113 | TCCCGCCTAGTGACAGAGA | 0.352
114 | TCCCAGTTAGTGTGGGAGA | 0.161
115 | TCCCGTGGAGTTTTAGAGA | 0.478
116 | TCCCCTGCAGTTAGGGAGA | 0.221
117 | TCCCAGCAAGTGCATGAGA | 0.153
118 | TCCCGGGGAGTCACGGAGA | 0.234
119 | TCCCTTTGAGTGCCTGAGA | 0.207
120 | TCCCTTAAAGTATTTGAGA | 0.236
121 | TCCCGCGAAGTGTGGGAGA | 0.233
122 | TCCCTAGAAGTCATGGAGA | 0.048
123 | TCCCACTAAGTAGTCGAGA | 0.126
124 | TCCCGGGGAGTTACGGAGA | 0.447
125 | TCCCCAAAAGTGGAAGAGA | 0.266
126 | TCCCAGGGAGTCAGAGAGA | 0.186
127 | TCCCCGCCAGTCATCGAGA | 0.411
128 | TCCCATTCAGTCGTCGAGA | 0.215
129 | TCCCCTGAAGTGACAGAGA | 0.428
130 | TCCCGTACAGTTCATGAGA | 1.18
